The whole screen tested about 48,000 compounds, of which about 550 (1.1%) were called active. Roughly 4% stayed inconclusive and do not appear here. Rule as the data show it: active = potency below about 15 µM; inconclusive = mostly about 16 µM to 33 µM; inactive = weaker than that. Some of the results follow.

Potency data for 60 compounds are collected here from PubChem BioAssay AID360 (National Center for Advancing Translational Sciences (NCATS), 2006).
Potency is read from the fitted curve at half-maximal effect.

UniProt P04062, sequence (P04062 whole entry, looked up): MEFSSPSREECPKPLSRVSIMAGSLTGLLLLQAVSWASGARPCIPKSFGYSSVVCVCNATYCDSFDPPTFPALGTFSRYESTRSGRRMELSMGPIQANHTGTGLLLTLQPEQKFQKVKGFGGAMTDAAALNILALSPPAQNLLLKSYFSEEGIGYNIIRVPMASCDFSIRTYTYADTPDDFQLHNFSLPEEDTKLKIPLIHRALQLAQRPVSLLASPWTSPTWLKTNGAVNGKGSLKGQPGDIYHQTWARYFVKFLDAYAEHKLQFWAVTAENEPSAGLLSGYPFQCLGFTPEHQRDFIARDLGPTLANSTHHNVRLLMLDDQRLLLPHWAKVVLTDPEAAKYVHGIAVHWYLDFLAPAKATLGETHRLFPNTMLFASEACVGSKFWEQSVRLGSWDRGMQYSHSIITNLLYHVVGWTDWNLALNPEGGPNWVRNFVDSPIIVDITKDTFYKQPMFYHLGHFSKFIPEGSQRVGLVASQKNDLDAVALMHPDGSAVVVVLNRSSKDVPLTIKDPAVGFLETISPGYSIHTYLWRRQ

The experiment concerns the target Lysosomal acid glucosylceramidase (Homo sapiens) (UniProt P04062). Briefly: Glucocerebrosidase.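 Also: the screen sought inhibitors.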 The following applies: purified enzyme, resorufin glucoside fluorescence (screen aimed at inhibitors), 20 min; series mostly up to 77 µM. An outline of the steps:
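Normal human glucocerebrosidase (0.2 nM final) was assayed with resorufin β-D-glucopyranoside (30 uM final) in 50mM citric acid/KH2PO4, 10mM sodium taurocholate, 0.01% tween-20, pH 5.9. Compounds were titrated; fluorescence (Ex 548, Em 600) read after 20 min at RT.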
Regarding `c1ccc(Cn2c(-c3ccco3)nc3nc4ccccc4nc32)cc1`, the Potency is inactive: > 76.9 µM.

For `CS(=O)(=O)N1CCCC(C(=O)NCCCN2CCN(Cc3ccccc3)CC2)C1` (stereo not given), the Potency was inactive: > 76.9 µM.

Consider `COC(=O)CCC(=O)Nc1sc(C)c(C)c1C(N)=O`, for which the Potency was inactive: > 76.9 µM.

With `Cc1ccccc1N(CC(=O)Nc1ccc(F)cc1)S(C)(=O)=O`, the Potency was inactive: > 76.9 µM.

Regarding `CCOC(=O)CC(=O)CSc1nnc2c(n1)[nH]c1ccccc12`, the Potency is inactive: > 76.9 µM.

With `O=C(CSc1nnc(-c2ccc(Cl)s2)o1)N1CCOCC1`, the Potency is inactive: > 76.9 µM.

`COC(=O)c1cc(Br)c(=O)n(Cc2ccc(OC)c(OC)c2)c1`: the Potency was inactive: > 76.9 µM.

Consider `O=C(CN1C(=O)c2ccccc2S1(=O)=O)N1CCN(c2ccccc2F)CC1`, for which the Potency is inactive: > 76.9 µM.

On to `O=C(Nc1ccon1)c1ccc(Br)o1`, for which the Potency was inactive: > 76.9 µM.

`CCOC1=NC(C(=O)O)c2ccccc2/C(=C(/C)Cl)N1` (stereo not given): the Potency is inactive: > 76.9 µM.

Take `CCCNC(=O)c1nc2ncc(Br)cn2n1`: the Potency is inactive: > 76.9 µM.

Take `CCCNC(=O)CN(C1CCCCC1)S(C)(=O)=O`: the Potency was inactive: > 76.9 µM.

With `O=C(Nc1ccc2c(c1)OCO2)c1c(F)c(F)c(F)c(F)c1F`, the Potency is inactive: > 76.9 µM.

In the case of `COC(=O)c1ccc(NC(=O)Nc2ccc(F)cc2)cc1`, the Potency was inactive: > 76.9 µM.

In the case of `CCOc1cc(S(=O)(=O)N2CCOCC2)ccc1F`, the Potency was inactive: > 76.9 µM.

Take `CCCCNC(=O)NS(=O)(=O)c1ccc(C(=O)OC)o1`: the Potency was inactive: > 76.9 µM.

Turning to `COc1cccc(Nc2nnc(SCn3nnc4ccccc4c3=O)s2)c1`, the Potency is inactive: > 76.9 µM.

Turning to `COc1cccc(N2CCN(S(=O)(=O)c3ccc4nc(-c5ccccc5)[nH]c4c3)CC2)c1`, the Potency is inactive: > 76.9 µM.

As for `C=CCN=C(CC)C1=C(O)CCCC1=O`, the Potency was inactive: > 76.9 µM.

As to `Cc1ccc(S(=O)(=O)NC(CC(N)=O)C(=O)O)cc1` (stereo not given), the Potency was inactive: > 76.9 µM.

For `Cc1cccc2cc(C(c3nnnn3C3CCCC3)N3CCOCC3)c(=O)[nH]c12` (stereo not given), the Potency was inactive: > 76.9 µM.

On to `CCC(Sc1nnnn1C)C(=O)Nc1ccc(C(C)=O)cc1` (stereo not given), for which the Potency is inactive: > 76.9 µM.

Take `COC(=O)c1ccccc1NC(=O)C1CC(c2ccc(F)cc2)=NO1` (stereo not given): the Potency was inactive: > 76.9 µM.

For `CCOc1ccccc1Nc1ccc(C(=O)O)cc1NC(C)=O`, the Potency is inactive: > 76.9 µM.

As to `CCCCN(C)Cc1c(C)[nH]c2ccc(Cl)cc2c1=O`, the Potency is inactive: > 76.9 µM.

Turning to `Cc1c(NC(=O)c2cc(=O)[nH]c(=O)[nH]2)c(=O)n(-c2ccccc2)n1C`, the Potency is inactive: > 76.9 µM.

As to `O=C(CSc1cccc2cccnc12)NCc1ccco1`, the Potency is inactive: > 76.9 µM.

For `CCOC(=O)C(C)Oc1ccccc1C1NC(=O)NC(C)=C1C(=O)Nc1ccc(C)c(C)c1` (stereo not given), the Potency is inactive: > 76.9 µM.

For the compound `CCC(=O)Nc1ccccc1C(=O)OCC(=O)Nc1ccc(S(N)(=O)=O)cc1`, the Potency is inactive: > 76.9 µM.

Regarding `CCCn1c(C)cc(C(=O)CN2C(=O)c3ccccc3C2=O)c1C`, the Potency was inactive: > 76.9 µM.

Regarding `Cc1c(C(=O)N2CCN(c3ccccn3)CC2)oc2ccccc12`, the Potency result is “inactive”.

As for `CCOC(=O)C1=C(C)N(C)C(=O)NC1c1ccc(C)s1` (stereo not given), the Potency is inactive: > 76.9 µM.

As for `Cc1ccccc1C(=O)c1cccn1CC(=O)NCc1ccco1`, the Potency was inactive: > 76.9 µM.

On to `CC(C)CCN1CC(C(=O)NC(C)C)CC1=O` (stereo not given), for which the Potency is inactive: > 76.9 µM.

For `O=S(=O)(c1cccc(-c2nnco2)c1)N1CCCC1`, the Potency was inactive: > 76.9 µM.

As for `COc1cccc(C2c3c(oc4ccccc4c3=O)C(=O)N2CCCN2CCOCC2)c1OC` (stereo not given), the Potency was inactive: > 76.9 µM.

As for `Cc1ccc(C(=O)O)cc1S(=O)(=O)N1CCSCC1`, the Potency was inactive: > 76.9 µM.

Take `CCCN1CCC(NC(=O)Nc2ccc(F)cc2F)CC1`: the Potency was inactive: > 76.9 µM.

For `O=C(O)C1C2C=CC(C2)C1C(=O)NCCCN1CCOCC1` (stereo not given), the Potency was inactive: > 76.9 µM.

`CCCN(Cc1ccccc1)C(=O)Nc1ccc2c(c1)nnn2C`: the Potency is inactive: > 76.9 µM.

For `COc1cc(OC)cc(C(=O)NC2CCSC2=O)c1` (stereo not given), the Potency was inactive: > 76.9 µM.

On to `O=C(NC(=O)c1ccc(Cl)cc1)Nc1cc(N2CCCCC2)ncn1`, for which the Potency was inactive: > 76.9 µM.

On to `COCc1nnc(SCC(=O)NCc2ccccc2)n1-c1ccccc1`, for which the Potency is inactive: > 76.9 µM.

Consider `CCOC(=O)c1nnn(-c2nonc2-n2cccc2)c1C`, for which the Potency was inactive: > 76.9 µM.

Consider `O=C(CSc1ncnc2c1oc1ccccc12)NCc1ccco1`, for which the Potency was inactive: > 76.9 µM.

With `CCOC(=O)c1c(C)n(C(=O)c2ccco2)c(=O)n1C(=O)c1ccco1`, the Potency is inactive: > 76.9 µM.

In the case of `COC(=O)c1c(NC(=O)CN2CCN(C(=O)c3ccco3)CC2)c2c(C)cccc2n1C`, the Potency is inactive: > 76.9 µM.

Take `CCOC(=O)CCCCC(=O)c1[nH]c(=O)[nH]c1CN1CCOCC1`: the Potency is inactive: > 76.9 µM.

Turning to `CCn1c(=O)cc(OCC(=O)NCc2ccco2)c2ccccc21`, the Potency is inactive: > 76.9 µM.

On to `Cc1c(C(=O)N2CCOCC2)oc2c1C(=O)CC(C)(C)C2`, for which the Potency was inactive: > 76.9 µM.

Take `CN(c1cccc(NC(=O)COc2ccccc2)c1)S(C)(=O)=O`: the Potency is inactive: > 76.9 µM.

With `O=C(O)c1cccc(N2C(=O)CSC2c2c(F)cccc2Cl)c1` (stereo not given), the Potency is inactive: > 76.9 µM.

Regarding `c1cc(CNc2ccc3c(c2)OCCO3)ccn1`, the Potency is inactive: > 76.9 µM.

As to `CCNC(=O)COC(=O)COc1ccc(Cl)cc1C`, the Potency is inactive: > 76.9 µM.

For the compound `Cc1ccc2c(c1)c1ncnc(N3CCN(c4ccccc4)CC3)c1n2C`, the Potency is inactive: > 76.9 µM.

Take `CCOc1cccc(NC(=O)C2CC(=O)N(C)C2)c1` (stereo not given): the Potency is inactive: > 76.9 µM.

On to `CCOC(=O)c1c(NC(=O)Cn2nnc3ccccc32)sc2c1CCC(C)C2` (stereo not given), for which the Potency was inactive: > 76.9 µM.

With `C=CCn1c2ccccc2c2nnc(SCc3ccc4nonc4c3)nc21`, the Potency was inactive: > 76.9 µM.

Consider `O=C(NCc1ccccc1)c1cc(S(=O)(=O)N2CCOCC2)ccc1F`, for which the Potency was inactive: > 76.9 µM.

`COc1ccccc1-c1cc(C(=O)Nc2ccccc2SC)no1`: the Potency was inactive: > 76.9 µM.
